Screen size: about 310,000 compounds; about 2,200 (0.71%) showed an effect of 50% or more. Effects have a minus sign here. Some of the results follow.
Target: human ether-à-go-go-related gene (hERG) potassium channel (human, UniProt Q12809)
Assay: primary screen, population patch clamp on CHO cells stably expressing hERG

human ether-à-go-go-related gene (hERG) potassium channel, sequence (Q12809 whole entry, looked up): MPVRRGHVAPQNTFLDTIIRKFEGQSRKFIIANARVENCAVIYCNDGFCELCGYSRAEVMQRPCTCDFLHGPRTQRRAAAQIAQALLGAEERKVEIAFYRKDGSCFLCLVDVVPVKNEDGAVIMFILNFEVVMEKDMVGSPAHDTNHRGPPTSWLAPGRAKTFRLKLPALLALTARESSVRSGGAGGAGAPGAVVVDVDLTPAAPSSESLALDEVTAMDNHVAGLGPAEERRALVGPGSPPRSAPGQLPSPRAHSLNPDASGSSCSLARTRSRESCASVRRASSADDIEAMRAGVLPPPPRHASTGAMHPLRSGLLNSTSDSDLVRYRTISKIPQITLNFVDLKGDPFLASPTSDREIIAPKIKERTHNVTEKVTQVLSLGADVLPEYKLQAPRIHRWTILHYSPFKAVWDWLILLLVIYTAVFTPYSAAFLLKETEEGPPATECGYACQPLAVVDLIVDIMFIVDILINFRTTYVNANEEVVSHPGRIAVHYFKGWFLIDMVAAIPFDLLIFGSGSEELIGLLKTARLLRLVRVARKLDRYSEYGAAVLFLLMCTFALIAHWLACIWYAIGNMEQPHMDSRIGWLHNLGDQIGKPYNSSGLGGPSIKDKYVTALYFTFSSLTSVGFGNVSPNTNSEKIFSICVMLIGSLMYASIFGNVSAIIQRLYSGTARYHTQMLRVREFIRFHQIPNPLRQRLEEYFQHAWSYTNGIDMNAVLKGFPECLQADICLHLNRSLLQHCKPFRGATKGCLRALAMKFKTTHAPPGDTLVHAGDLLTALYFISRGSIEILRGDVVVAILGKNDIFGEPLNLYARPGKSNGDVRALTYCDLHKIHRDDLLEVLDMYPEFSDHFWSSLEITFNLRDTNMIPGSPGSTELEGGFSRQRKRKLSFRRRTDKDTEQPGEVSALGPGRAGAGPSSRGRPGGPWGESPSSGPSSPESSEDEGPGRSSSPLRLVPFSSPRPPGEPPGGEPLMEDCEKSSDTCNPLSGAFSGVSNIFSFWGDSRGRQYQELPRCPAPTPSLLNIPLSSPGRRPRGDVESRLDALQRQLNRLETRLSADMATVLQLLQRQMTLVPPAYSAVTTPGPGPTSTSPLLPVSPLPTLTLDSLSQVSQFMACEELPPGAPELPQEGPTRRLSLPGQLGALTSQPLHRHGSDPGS

In order of rising “hERG current change (%, negative = inhibition) at 1uM” value:
1. O=C(NNC(=O)c1sccc1-n1cccc1)c1ccc(F)cc1  -19.6%
2. CN(C)CCSc1nc(-c2ccccc2)nc2c1CCC2  -16.4%
3. CCOC(=O)C1CSC(CC(=O)Nc2ccc(Cl)c(Cl)c2)C(=O)N1 (centres unmarked)  -8.9%
4. COc1ccc(CCC(C)Nc2cccc(F)c2)cc1 (centres unmarked)  -7.4%
5. CCOC(=O)CSc1nnc(NC(=O)c2cc([N+](=O)[O-])cc([N+](=O)[O-])c2)s1  -6.84%
6. COCCNC(=O)COC(=O)/C=C/c1c(C)nn(Cc2ccc(Cl)cc2Cl)c1Cl  -5.52%
7. CCC(C)NC(=O)CSc1nc2scc(-c3ccccc3)c2c(=O)[nH]1 (centres unmarked)  -4.12%
8. Cc1ccc(-c2csc(N(CCCN3CCOCC3)C(=O)c3ccco3)n2)cc1.Cl  -4.11%
9. C=C1CCN([C@H](C(=O)NCc2ccc(Cl)cc2)C(C)C)S(=O)(=O)c2ccccc21  -3.97%
10. Cc1nnc(NC(=O)CSCc2c(C)noc2C)s1  -1.84%
11. Cc1cc(C)nc(NS(=O)(=O)c2ccc(NC(=O)c3ccco3)cc2)n1  -1.81%
12. Cc1c(C(=O)NC2CCCC2)oc2ccccc12  -1.32%
13. Cl.NCCCC(=O)N1c2ccccc2Sc2ccccc21  0.002%
14. CCCCOc1ccccc1C1C(C(=O)OC)=C(C)N(C)C(C)=C1C(=O)OC  0.0753%
15. CCOC(=O)Cc1csc(SCC(=O)Nc2ccc3[nH]c(=O)[nH]c3c2)n1  0.0859%
16. CCn1c(SCC(=O)c2ccc(NS(=O)(=O)c3ccccc3)cc2)nnc1-c1cccs1  0.643%
17. COCCn1nnnc1C(c1cccs1)N1CCN(c2nc3ccccc3s2)CC1 (centres unmarked)  0.667%
18. CCOC(=O)c1c(CSc2nc(C)cc(C)c2C#N)n(C)c2cc(Br)c(OC(C)=O)cc12  1.1%
19. Cn1c(COc2ccc(Cl)cc2)nnc1SCC(=O)NC1CCCCC1  1.21%
20. CCOC(=O)C1CCN(S(=O)(=O)c2ccc(-c3ccccn3)s2)CC1  1.29%
21. C[C@H](NC(=O)OC(C)(C)C)c1nnc(SCC(N)=O)o1  2.34%
22. COC(=O)c1nn(-c2ccc3c(c2)OCO3)cc1O  2.4%
23. Cc1nc(N)sc1-c1csc(Nc2ccc(Cl)cn2)n1  3.31%
24. COCC(C)n1c(SCC(=O)N(C)C2CCS(=O)(=O)C2)nc2ccccc2c1=O (centres unmarked)  4.54%
25. O=C1c2oc3ccccc3c(=O)c2C(c2cccnc2)N1CCCN1CCOCC1 (centres unmarked)  4.59%
26. COc1ccc(C(=O)NNc2ccccc2)cc1  4.65%
27. Cc1ccsc1C(=O)N1CCN(S(=O)(=O)c2cccc(F)c2)CC1  5%
28. COc1ccc(CC(=O)Nc2nc(C(C)(C)C)cs2)cc1  5.06%
29. CC1(C)Cc2nc3sc4c(OCc5ccccc5)ncnc4c3cc2CO1  5.06%
30. Cc1cc(C)c2c(=O)[nH]c(SCC(=O)N(C)C)nc2n1  5.22%
31. Nc1c(S(=O)(=O)c2cccs2)c2nc3ccccc3nc2n1Cc1cccs1  5.38%
32. CC(C)(C)c1[nH]ncc1[N+](=O)[O-]  5.4%
33. c1ccc(-n2nnnc2NCCc2c[nH]c3ccccc23)cc1  5.44%
34. COC(=O)c1sccc1S(=O)(=O)NCc1ccc(S(N)(=O)=O)cc1  5.9%
35. Cc1cccc(NC(=O)CCN2CCCCC2)c1.Cl  5.95%
36. O=C(Cn1cc(C(F)(F)F)ccc1=O)N1CCN(S(=O)(=O)c2ccc(Cl)cc2)CC1  6.21%
37. O=[N+]([O-])c1cc2c(cc1Br)CCN2  6.25%
38. O=C(NCc1ccco1)c1ccccc1SCC(=O)N1CCCC1  6.45%
39. CCOC(=O)CN1C(=O)N(CC(=O)OCC)C(c2ccccc2)(c2ccccc2)C1=O  6.45%
40. CN(C)CCNC(=O)c1cc2c(=O)n(C)c3ccccc3c2n1C  6.72%
41. COCCN(C(=O)C1CCCO1)c1c(N)n(CC(C)C)c(=O)[nH]c1=O (centres unmarked)  7.05%
42. CC(C)c1ccc(NC(=O)N2C[C@H]3C[C@@H](C2)c2cccc(=O)n2C3)cc1  7.81%
43. CCC1=C(OC(=O)c2ccccc2)C(C)(C)C(c2ccccc2)OC1=O (centres unmarked)  7.81%
44. COc1cccc(CNC(=O)N2CCN(c3ccccc3)CC2)c1  7.85%
45. CCN1CCN(C(=S)NCc2ccc(C)cc2)CC1  8.05%
46. CCn1c2ccccc2c2cc(NC(=O)Cc3ccc(S(=O)(=O)N4CCOCC4)s3)ccc21  8.14%
47. Cc1ccc(C(=O)N/C(=C/c2ccco2)C(=O)Nc2cccc(C)c2)cc1  8.34%
48. CCOC(=O)c1c(NC(C)=O)sc2c(O)c(Br)ccc12  8.63%
49. O=C(Nc1ccc2c(c1)oc1ccccc12)c1ccc2c(c1)OCO2  9.05%
50. O=C(O)c1ccc2c(=O)n3c(nc2c1)/C(=C/c1ccc(C(F)(F)F)cc1)CC3  9.18%
51. CC1CC(C)CN(CC(=O)N2CCCc3c2c(=O)oc2ccc(OCc4ccccc4)cc32)C1 (centres unmarked)  9.29%
52. Cc1ccc(NC(=O)/C(=C\c2ccccc2)NC(=O)c2ccco2)cc1  9.83%
53. COc1cccc(C2CC(C(F)(F)F)n3ncc(C(=O)O)c3N2)c1 (centres unmarked)  9.97%
54. CCOc1ccc(CCNC(=O)C2CCN(S(=O)(=O)N3CCOCC3)CC2)cc1OCC  10.4%
55. Cc1ccc2cc(C#N)c(N3CCCN(C(=S)NCCCN(C)C)CC3)nc2c1  10.6%
56. CN(C)CCCOc1cccc(Cl)c1.O=C(O)C(=O)O  10.9%
57. CCNC(=S)NNC(=S)NCc1ccccc1  11%
58. COc1ccc(NC(=O)COc2coc(CN3CCN(c4ccccc4)CC3)cc2=O)cc1  11.3%
59. N#C/C(=C/c1ccc(CNS(=O)(=O)c2ccccc2)o1)C(N)=O  11.6%
60. C1CCC(NC2CCCCC2)CC1  11.6%
61. Cn1nnc(NC(=O)/C=C/c2ccco2)n1  11.7%
62. COc1ccc(N=C2SC(C(=O)N3CCN(c4ccccc4)CC3)CC(=O)N2C)cc1 (centres unmarked)  11.8%
63. O=C(CCCOc1ccccc1)NCC1CCCO1 (centres unmarked)  11.9%
64. Cl.N#CCCN(/N=C/c1cccnc1)C1=NS(=O)(=O)c2ccccc21  12.2%
65. O=C(O)CS(=O)(=O)CC(=O)O  12.5%
66. Cc1c(N2C(=O)c3ccc(F)cc3C2=O)c(=O)n(-c2ccccc2)n1C  12.5%
67. Cc1ccc(OCC(=O)Nc2ccc(S(=O)(=O)Nc3ccccn3)cc2)c(C)c1  12.6%
68. COc1ccc(N(CC(=O)N2CCOCC2)S(C)(=O)=O)c(OC)c1  13%
69. Cc1c(N2C(=O)CSC2c2ccccc2)c(=O)n(-c2ccccc2)n1C (centres unmarked)  13.2%
70. COc1ccc(N2C(=O)CC(C#N)=C2N)cc1  13.5%
71. O=C(NCCN1CCCC1)c1ccc2c(c1)N(Cc1cccc(Cl)c1)C(=O)c1ccccc1S2(=O)=O  13.5%
72. COc1ccc(N(C(=O)COc2ccccc2OC)S(=O)(=O)c2ccc(C)cc2)cc1  13.5%
73. O=C1N(CN2C(=O)C3(OCCO3)c3ccccc32)c2ccccc2C12OCCO2  13.5%
74. Fc1ccccc1/C=N/n1cnnc1  13.7%
75. CC(=O)Nc1ccc(OCC(=O)NC(C)C(C)C)cc1 (centres unmarked)  13.7%
76. COc1cc(O)c(C(C)=O)cc1OC  14.1%
77. CCN1CCN(Cc2ccc(NC(=O)c3ccc(C)c(NC(=O)c4cccc5[nH]ccc45)c3)cc2C(F)(F)F)CC1  14.5%
78. Cc1ccnc(SC2CC(=O)N(c3ccc(C(C)C)cc3)C2=O)n1 (centres unmarked)  14.7%
79. C/C(=N\NC(=O)c1cc(C)nc2ccc(C)cc12)c1ccncc1  14.8%
80. C[C@]12CCC(=O)C[C@@H]1CC[C@@H]1[C@@H]2CC[C@]2(C)[C@@H](C(=O)COC(=O)CCC(=O)O)CC[C@@H]12  15%
81. Brc1ccccc1-c1ccccc1  15.3%
82. COc1cccc(C(=O)NCCNC(=O)c2ccco2)c1.O=C(O)C(=O)O  15.7%
83. COc1cc(/C=N\NC(=O)c2ccc(-c3ccccc3)cc2)ccc1OCC(N)=O  16.1%
84. O=C(CSc1nccc(=O)[nH]1)N1CCN(c2ccccc2)CC1  16.1%
85. Cc1ccc(NC(=O)C2CCCN(S(=O)(=O)c3cccnc3)C2)c(C)c1 (centres unmarked)  17.1%
86. O=C(N[C@@H](Cc1ccc(O)cc1)C(=O)O)c1ccc(C(F)(F)F)cc1  18.3%
87. COc1cc(N(C(=O)Cc2cccs2)C(C(=O)NC2CCCCC2)c2ccc(C)cc2)ccc1-n1cnnn1 (centres unmarked)  19.9%
88. CC(=O)Nc1ccc(S(=O)(=O)N2CCC(=O)Nc3ccccc32)cc1  20.6%
89. Cc1cccc(N(CC(=O)Nc2ccccc2F)S(C)(=O)=O)c1  21.7%

Reference: publication PMC4336329 (PLoS ONE, 2015)
